Experimental data taken from paper PMC4336329 (PLoS ONE, 2015).
Screen size: about 310,000 compounds; about 14,000 (4.5%) showed an effect of 50% or more. Effects have a minus sign here. The list shows a part of the results.

target: human ether-à-go-go-related gene (hERG) potassium channel (human, UniProt Q12809); assay: primary screen, population patch clamp on CHO cells stably expressing hERG
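Further: peak tail current of the secondary pulse compared with the same well before compound.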

Chain of human ether-à-go-go-related gene (hERG) potassium channel (Q12809 whole entry, looked up): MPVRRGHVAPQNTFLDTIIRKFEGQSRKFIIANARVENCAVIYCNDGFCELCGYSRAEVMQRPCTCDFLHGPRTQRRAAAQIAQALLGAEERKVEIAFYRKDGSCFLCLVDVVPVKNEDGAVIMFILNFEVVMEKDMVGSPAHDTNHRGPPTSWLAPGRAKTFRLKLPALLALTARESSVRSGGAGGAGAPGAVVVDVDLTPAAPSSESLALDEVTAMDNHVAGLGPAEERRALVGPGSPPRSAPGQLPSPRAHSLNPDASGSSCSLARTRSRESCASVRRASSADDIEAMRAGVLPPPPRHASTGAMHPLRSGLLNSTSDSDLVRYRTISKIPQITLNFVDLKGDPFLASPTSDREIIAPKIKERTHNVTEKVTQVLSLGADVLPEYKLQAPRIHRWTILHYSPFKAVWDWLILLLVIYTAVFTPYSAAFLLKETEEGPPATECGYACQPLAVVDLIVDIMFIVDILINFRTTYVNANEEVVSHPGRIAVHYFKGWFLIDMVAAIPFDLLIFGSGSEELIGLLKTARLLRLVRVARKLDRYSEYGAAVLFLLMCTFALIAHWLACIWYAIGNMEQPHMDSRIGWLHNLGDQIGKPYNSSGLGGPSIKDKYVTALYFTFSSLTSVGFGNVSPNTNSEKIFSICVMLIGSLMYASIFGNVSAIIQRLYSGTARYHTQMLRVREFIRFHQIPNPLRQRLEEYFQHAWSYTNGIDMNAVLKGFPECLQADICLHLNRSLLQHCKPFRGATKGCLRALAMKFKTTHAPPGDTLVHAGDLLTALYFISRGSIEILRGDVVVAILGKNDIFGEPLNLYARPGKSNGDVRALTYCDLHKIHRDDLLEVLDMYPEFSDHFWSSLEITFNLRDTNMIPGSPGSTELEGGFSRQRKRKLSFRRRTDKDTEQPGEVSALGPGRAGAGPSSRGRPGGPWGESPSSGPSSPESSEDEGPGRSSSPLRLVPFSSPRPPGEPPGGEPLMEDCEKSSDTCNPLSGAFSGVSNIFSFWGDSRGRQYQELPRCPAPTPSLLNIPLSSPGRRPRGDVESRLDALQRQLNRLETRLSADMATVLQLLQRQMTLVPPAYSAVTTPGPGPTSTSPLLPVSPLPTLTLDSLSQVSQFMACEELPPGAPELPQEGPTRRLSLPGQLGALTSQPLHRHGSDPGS

SMILES	hERG current change (%, negative = inhibition) at 10uM
O=C(NNC(=O)C1CCN(S(=O)(=O)c2ccc(Cl)cc2)CC1)c1ccccc1O	-2.13%
O=C(CNC(=O)N1CC(=O)Nc2ccccc21)NCc1ccccc1	19.6%
O=C(CN1N=C(c2ccccc2)CCC1=O)NCc1ccco1	0.243%
Cc1cc2oc(=O)cc(-c3cc4ccccc4o3)c2cc1O	15.4%
Cc1cc2ncn(-c3ncccc3[N+](=O)[O-])c2cc1C	-0.529%
COC(=O)C1=C(C)NC(=O)/C1=C\c1cc(C)n(-c2cccc(C)c2)c1C	-1.25%
CC(C)(C)c1ccc(C(=O)NCC(=O)O)cc1	34.4%
CCC(c1nnc(SCC(=O)Nc2c(F)cccc2F)n1Cc1ccccc1)N(C)C (stereo not shown)	7.75%
CC1CCCN(C(=O)c2ccc(S(=O)(=O)N3CCC(c4nc5ccccc5s4)CC3)cc2)C1 (stereo not shown)	-6.75%
CCc1nc2ccccc2c(C(=O)Oc2cccc3cccnc23)c1C	3.71%
CC(C)CN(C(=O)COC(=O)CCc1c[nH]c2ccccc12)c1c(N)n(Cc2ccccc2)c(=O)[nH]c1=O	-4.57%
C=CCNC(=O)NC(=O)CSc1nc2cc([N+](=O)[O-])ccc2n1-c1cccc(C(F)(F)F)c1	20.8%
CCC(=O)N1CCc2cc(Br)cc(S(=O)(=O)NCCCN(C)Cc3ccccc3)c21	-23.8%
O=C(NCc1cccnc1)/C(=C\c1ccc(-c2ccc(Br)cc2)o1)S(=O)(=O)c1ccccc1	-16.5%
COc1cc2c(cc1OC)CN(CC(=O)Nc1cccc(C(F)(F)F)c1)CC2	5.01%
Cc1ccccc1-n1c(=S)[nH]c2nc3c(cc2c1=O)CCCC3	17.8%
Cc1nc(NCc2cccnc2)c2c3c(sc2n1)CC(C)CC3 (stereo not shown)	-25.1%
Nc1ncnc2c1ncn2[C@H]1C[C@H](O)[C@@H](COP(=O)(O)O)O1	12%
CN1CCN(C2=C(Cl)C(=O)N(c3ccc(Cl)c(Cl)c3)C2=O)CC1	14.1%
COC(CNC(=O)c1ccc2c(c1)ncn2-c1ccc(F)c(F)c1)OC	-8.37%
CCc1cccc2c(C#N)cn(CCOc3ccccc3OC)c12	0.955%
O=C(NCc1ccccn1)c1cccc(NS(=O)(=O)c2cccc(F)c2)c1	-4.67%

SMILES	hERG current change (%, negative = inhibition) at 10uM
O=C(Nc1cccc([N+](=O)[O-])c1)C1C2CCCCC21 (stereo not shown)	21%
CCc1ccc(OC(=O)Cc2ccc(OC)c(S(=O)(=O)N3CCOCC3)c2)cc1	-13.5%
O=C(COc1ccc(Cl)cc1Cl)NN1C(=O)C2C3C=CC(C3)C2C1=O (stereo not shown)	-0.38%
COc1ccccc1NC(=O)C1=C(C)NC(=O)NC1c1cc(C)cs1 (stereo not shown)	-1.44%
O=C1C(Cl)=C(N2CCCCCC2)C(=O)N1c1ccccc1	-1.74%
CC(=O)Oc1c(S(=O)(=O)c2ccc(C)cc2)c(C)nn1C(C)(C)C	-7.78%
COc1ccc(C(=O)/C(=C\c2sccc2C)c2nc3ccccc3o2)cc1	11.4%
COc1cccc(OCC(=O)NC2CCCCC2)c1	1.37%
Cn1c(C(=O)NCc2cccnc2)cc2sc(Cl)cc21	-43.9%
COc1ccc(N(C(=O)CCl)C(C(=O)NCCc2ccccc2)c2cccs2)cc1Cl (stereo not shown)	-3.69%
Cc1cc(C)cc(N(C(=O)c2sc(C)nc2C)C(C(=O)NCc2ccco2)c2ccccc2)c1 (stereo not shown)	15.4%
O=C(NC(Cc1c[nH]c2ccccc12)C(=O)OCC(=O)c1cccc2ccccc12)c1cccs1 (stereo not shown)	0.359%
COC(=O)c1ccc(NC(=O)c2cc(-c3ccccn3)nc3ccccc23)cc1	16.2%
CN(C)c1ccc(-c2nc3n(n2)C(c2cccnc2)C2=C(CC(C)(C)CC2=O)N3)cc1 (stereo not shown)	-10.2%
COc1ccc(NC(=O)c2cc(-c3ccco3)on2)cc1	11.1%
Cc1ccc2nc3c(c(C(=O)OCC(=O)N(C)C4CCS(=O)(=O)C4)c2c1)CCCC3 (stereo not shown)	-19.6%
CN1C(C(=O)Nc2ncccn2)=C(O)c2ccccc2S1(=O)=O	8.31%
CN(C)C(CNC(=O)c1cccnc1Sc1ccccc1)c1ccco1 (stereo not shown)	-0.564%
CC1CCN(c2ccccc2NC(=O)c2ccc(C#N)cc2F)CC1	5.07%
CCCCn1c(SCC(=O)Nc2cc(C)on2)nnc1-c1cccnc1	4.64%
O=C(CN1CCN(Cc2ccccc2)CC1)Nc1cccc(Br)c1	-51.7%
